For some of these results: The name of at least one read-out is uncertain. For some of these results: At least one structure is not confirmed: it was looked up by name or label, or the drawing left a doubt.
Experiments:
[1] = tested on: lipid of rat liver microsome; assay: Inhibition activity against hyperoxidation of lipid of rat liver microsome; assay type: biochemical, male Sprague Dawley (SD) rats
Procedure: [Inhibition activity against hyperoxidation of lipid of rat liver microsome ] (1) Preparation of rat liver microsome suspension, A plurality of male Sprague Dawley (SD) rats (weighing […]) were prepared. Each rat was anesthetized with pentobarbital, and then subjected to celiotomy. A cannula was introduced into the portal vein of each rat, the abdominal large veins were sectioned, and 500 ml of cold 0.9% NaCl was injected into the portal veins. Livers were extracted from individual rats, and the livers were cut to pieces in 1.15% KCl and homogenized with ice cooling. Then, 1.15% KCl was further added to obtain a 30% liver homogenized solution. The above homogenized solution was centrifugally separated at 8,000 g (g: gravitation acceleration) for 10 minutes, and the resultant supernatant was recovered. […] The reaction mixture was centrifugally separated at 2,000 rpm for 10 minutes, and the resultant supernatant was measured for an absorbance at 532 nm to determine a thiobarbituric acid reaction amount. […] The inhibition ratio of the lipid peroxidation reaction was calculated on the basis of the following equation. Inhibition ratio (%)=[1-(OD1 -OD3)/(OD2 -OD3)]×100 OD1 : Absorbance when test compound is added. OD2 : Absorbance of Control OD3 : Absorbance of Blank

[2] = tested on: Salmonella TA 98; assay: Antimutagenic activity test on mutagenesis of heterocyclic amine to Salmonellae (preincubation method-applied Ames test); assay type: cell-based
[3] = mutagen IQ 0.005 μg, test compound 20.0 μg

Cc1cc(C(C)(C)C)c(O)c(C(C)(C)C)c1 [BHT, Butylhydroxytoluene, reference compound]
Inhibition ratio of lipid peroxidation ([1]; 10^-5 M test compound, 10 µM): 100.0%
Inhibition ratio of lipid peroxidation ([1]; 10^-6 M test compound, 1 µM): 14.0%

CCCCOc1cc(C)c(O)c(C)c1C [Preparation Example 3, 1-butyl-2,3,5-trimethylhydroquinone]
Mutagenesis inhibition ratio [2, 3]: 85

CCCCCCOc1cc(C)c(O)c(C)c1C [Preparation Example 4]
Mutagenesis inhibition ratio ([2]; mutagen Glu-P-1.HCl 0.02 μg, test compound 5.0 μg): 81
Mutagenesis inhibition ratio ([2]; mutagen Glu-P-1.HCl 0.02 μg, test compound 10.0 μg): 92
Mutagenesis inhibition ratio ([2]; mutagen IQ 0.005 μg, test compound 5.0 μg): 89
Mutagenesis inhibition ratio ([2]; mutagen IQ 0.005 μg, test compound 10.0 μg): 64
Mutagenesis inhibition ratio ([2]; mutagen Trp-P-1.acetate 0.02 μg, test compound 5.0 μg): 61
Mutagenesis inhibition ratio ([2]; mutagen Trp-P-1.acetate 0.02 μg, test compound 10.0 μg): 73

CCOc1cc(C)c(O)c(C)c1C [Preparation Example 12, 1-ethyl-2,3,5-trimethylhydroquinone]
Mutagenesis inhibition ratio [2, 3]: 85

From patent USRE36139E, “Hydroquinone derivative” (Nippon Hypox Laboratories Incorporated, priority 1995, dated 1999)
